# Results: PubChem BioAssay AID1259400 (National Center for Advancing Translational Sciences (NCATS), 2018)
# The whole screen tested about 350,000 compounds, of which about 2,100 (0.6%) were called active. Inconclusive means that the source gave no clear call. Such entries were picked first, then a sample of the others.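 The calls were made as follows: active = activity change of -60% or lower, but not beyond a set lower limit; inconclusive = change between -60% and -40%, or beyond the set limit; inactive = change above -40%.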
# Molecular target: Relaxin receptor 1 (Homo sapiens) (UniProt Q9HBX9)
# Sequence of UniProt Q9HBX9 (Q9HBX9 whole entry, looked up): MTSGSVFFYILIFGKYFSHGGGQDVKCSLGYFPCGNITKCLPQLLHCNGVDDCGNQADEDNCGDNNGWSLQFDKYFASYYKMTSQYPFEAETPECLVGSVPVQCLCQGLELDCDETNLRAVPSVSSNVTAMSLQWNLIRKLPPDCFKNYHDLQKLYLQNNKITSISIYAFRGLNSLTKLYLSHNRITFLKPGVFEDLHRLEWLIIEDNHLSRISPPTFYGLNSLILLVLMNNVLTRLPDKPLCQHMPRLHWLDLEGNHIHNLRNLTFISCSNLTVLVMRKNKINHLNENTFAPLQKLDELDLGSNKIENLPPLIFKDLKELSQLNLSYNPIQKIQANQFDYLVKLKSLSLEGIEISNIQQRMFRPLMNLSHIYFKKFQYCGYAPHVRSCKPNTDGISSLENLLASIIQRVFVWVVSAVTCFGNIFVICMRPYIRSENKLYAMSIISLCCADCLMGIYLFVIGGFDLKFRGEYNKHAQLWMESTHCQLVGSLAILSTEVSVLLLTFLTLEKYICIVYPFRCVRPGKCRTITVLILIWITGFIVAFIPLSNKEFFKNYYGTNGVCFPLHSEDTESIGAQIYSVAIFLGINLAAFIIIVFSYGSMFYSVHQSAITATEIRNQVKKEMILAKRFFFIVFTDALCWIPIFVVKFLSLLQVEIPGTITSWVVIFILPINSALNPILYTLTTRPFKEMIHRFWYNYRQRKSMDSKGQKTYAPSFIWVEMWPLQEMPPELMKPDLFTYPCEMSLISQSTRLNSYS
# Assay: qHTS Assay for Antagonists of the Relaxin Receptor RXFP1
# Conditions: HEK293-RXFP1, relaxin-stimulated cAMP HTRF, 30 min; at 57.5 µM; active compounds read low
# % is scaled to controls: 0 for no effect and ±100 for the full control effect.
row,Structure (SMILES),"activity change, negative = inhibition"
1,O=C(Nc1cccc(S(=O)(=O)N2CCCCC2)c1)c1ccc(Cl)nc1,inactive: -10.1%
2,Cc1cc(O)c(C(C)C)cc1C1(c2cc(C(C)C)c(O)cc2C)OC(=O)c2ccccc21,inconclusive: -59%
3,CC(C)N(C(=O)COC(=O)c1ccccc1C(=O)c1ccc(Cl)c([N+](=O)[O-])c1)C(C)C,inconclusive: -57.8%
4,CCOC(=O)c1cnc2ccccc2c1Nc1ccc(C(=O)O)cc1,inactive: 6.51%
5,O=S(=O)(c1ccc(Cl)cc1)N1CCN(Cc2ccncc2)CC1,inactive: 12%
6,O=C(Nc1ccc(CN2CCOCC2)cc1)c1ccc(-c2ccc(Cl)cc2Cl)o1,inactive: 3.61%
7,Clc1ccc(Oc2ncnc3oc(-c4ccccc4)cc23)cc1,inactive: 3.73%
8,CC1(C)CC(=O)C(CC2CCCCC2=O)C(=O)C1 (stereo not given),inconclusive: -51.7%
9,CC(C)(C)OC(=O)N1CCC(c2c(C(=O)NC3CCCCC3)cnn2-c2cccc(Cl)c2)CC1,inconclusive: -50.4%
10,Fc1ccc(COc2ccc(/C=N/n3cnnc3)cc2)cc1,inconclusive: -40.2%
11,CCC(CNC(=O)c1c(C)nn(-c2ccccc2)c1Cl)c1ccccc1 (stereo not given),inconclusive: -48.8%
12,CCc1ccc(N(C(=O)c2snc(C(N)=O)c2N)C(C(=O)NCC2CCCO2)c2cccs2)cc1 (stereo not given),inconclusive: -42.1%
13,COc1ccccc1OCC(O)Cn1nc(C)cc1C (stereo not given),inconclusive: -45.2%
14,O=C(CSc1nc(O)cc(=O)n1-c1ccccc1)Nc1ccc2c3c(cccc13)CC2,inconclusive: -47.3%
15,N=c1c2c(-c3ccccc3)c(-c3ccccc3)n(Cc3ccco3)c2ncn1Cc1ccco1,active: -102%
16,Cn1c2ccccc2c2cc(/C=N/NC(=O)c3cc(O)ccc3O)ccc21,active: -112%
17,COc1cc2[nH]c(=S)n(C3CC3)c(=O)c2cc1OC,inconclusive: -44.9%
18,Cc1c(CN(C)C)c2c(n1Cc1ccccc1)C(=O)c1ccccc1-2,inconclusive: -49.9%
19,CCCN1C(=O)S/C(=C/c2ccc(N3CCOCC3)o2)C1=O,active: -91.9%
20,Cc1csc(NC(=O)Cc2coc3cc(C)c(C(C)C)cc23)n1,inconclusive: -46.6%
21,Cc1ccc(C(C(=O)NCC2CCCO2)N(C(=O)c2snc(C(N)=O)c2N)c2ccccc2)o1 (stereo not given),inconclusive: -42.3%
22,Cn1nnnc1N=N/C(=N/Nc1ccccc1)c1ccccc1,inconclusive: -54.7%
23,COc1ccc(NC(=O)Cn2nnc(C(=O)NCc3ccccc3Cl)c2N)cc1Cl,inactive: 4.28%
24,Cc1ccc(CNC(=O)CCc2ccccc2)cc1,inactive: -0.673%
25,O=C(CC(c1ccccc1)c1cc(Br)ccc1O)NCC1(c2ccccc2)CCCC1 (stereo not given),inconclusive: -46.6%
26,CCOC(=O)c1ccc(NC(=O)Cc2ccc(-n3c(CC)nc4cccnc43)cc2)cc1,inconclusive: -42.7%
27,Cc1ccc(-c2nc(SCc3ccc(Br)cc3)n3[nH]c(=O)cc3n2)cc1,inconclusive: -47.9%
28,O=c1c2cc(-c3ccccc3)sc2ncn1/N=C/c1ccco1,inactive: -4.07%

row,Structure (SMILES),"activity change, negative = inhibition"
1,Cc1cccc(N2C(=O)CCSC23C(=O)N(Cc2ccc(F)cc2)c2ccccc23)c1 (stereo not given),active: -63.1%
2,CCN(c1ccccc1)S(=O)(=O)c1ccc(C(=O)Nc2ccccc2OC)cc1,inconclusive: -43.1%
3,Cc1ccc(NC(=O)c2ccc(S(=O)(=O)NCc3ccco3)cc2)cc1,inconclusive: -50.2%
4,Cc1ccc(S(=O)(=O)NC(=NC2CCCCC2)c2ccccc2)cc1,inconclusive: -42.1%
5,CN(C(=S)Nc1ccc(F)cc1)C(c1ccccc1)c1ccccc1,inconclusive: -45.4%
6,O=C(Nc1cccc2c1CCCC2)c1ccc(Cl)c([N+](=O)[O-])c1,active: -70.3%
7,O=C(/C=C/c1ccc(OC(F)F)cc1)Nc1cccc(S(=O)(=O)NC2=NCCCCC2)c1,inconclusive: -49.5%
8,Cc1ccc(-c2nn(CCC(=O)Nc3cccnc3)c(=O)c3ccccc23)cc1,inactive: 5.81%
9,C=CCN=C1S/C(=C\c2ccc(N(C)C)cc2)C(=O)N1CC=C,inconclusive: -48.9%
10,O=C(NC1CC(=O)N(c2ccc(Cl)cc2)C1)c1ccc(S(=O)(=O)N2CCCC2)cc1 (stereo not given),inconclusive: -42.8%
11,CC(=O)c1ccc(NC(=O)Nc2cccc3ccccc23)cc1,inactive: -1.72%
12,Cn1c(SCc2ccc(C(C)(C)C)cc2)nnc1C1COc2ccccc2O1 (stereo not given),active: -68.6%
13,CC(=O)c1ccc(N(CC(=O)NCCc2ccccc2)C(=O)c2csnn2)cc1,inactive: -3.26%
14,CN(Cc1ccccc1F)c1nc(-c2cccnc2)nc2ccccc12,active: -67.3%
15,Cc1ccc(C)c(/C=C/C(=O)c2ccccc(=O)c2O)c1,inconclusive: -45%
16,Cc1cc(C)cc(N(CC(=O)Nc2ccc(-c3nc4ccc(C)cc4s3)cc2)S(C)(=O)=O)c1,inactive: -11%
17,O=C(OCCCCOC(=O)c1ccccc1)c1ccccc1,inconclusive: -57.2%
18,CC(C)OC(=O)C(C(=O)C(F)(F)F)c1cc(NS(=O)(=O)c2ccc3ccccc3c2)c2ccccc2c1O (stereo not given),active: -85.5%
19,COc1ccc(Cl)cc1N(CC(=O)N/N=C/c1ccc(OCC(N)=O)cc1)S(C)(=O)=O,active: -77.6%
20,CCOc1ccc(C(=O)C(CCC(CN(C)C)C(=O)c2ccc(OCC)cc2)CN(C)C)cc1 (stereo not given),inconclusive: -53.5%
21,COc1ccc2ccccc2c1/C=N/N1C(=O)CSC1=S,inconclusive: -58.1%
22,CCC(=O)NC(c1ccc(Cl)cc1Cl)c1ccc2cccnc2c1O (stereo not given),active: -97.7%
23,Cc1ccc(/C=C2/SC(=S)N(c3ccc(S(=O)(=O)Nc4nccs4)cc3)C2=O)cc1,active: -66.5%
24,O=C(Nc1sc2c(c1-c1nc3ccccc3[nH]1)CCCC2)C1CCCC1,inactive: -17.1%
25,COc1cccc2c(Cl)c(CC=C(Cl)Cl)c(C)nc12,inconclusive: -48%
26,COc1cccc(NC(=O)CSc2nnc(NC(=O)NC3CCCCC3)s2)c1,inactive: -2.61%
27,COc1ccc(Br)cc1/C=N/NC(=O)CNC(=O)C1COc2ccccc2O1 (stereo not given),inactive: -10.9%
